Measurements reported in PubChem BioAssay AID1645887 (National Center for Advancing Translational Sciences (NCATS), 2021).
“And” between values parts separate entries of the source, which are not always exact repeats. Identical values can stand only once. About 40 (0.2%) of roughly 16,000 compounds were called active. About 1% were inconclusive and are not listed. The call rests on the fitted dose curve; in most records, active means well fitted activation curve with a large enough effect; inconclusive means small, poorly fitted or top-dose-only effect, or another doubt; inactive means no such curve, though single readings can be large or run the other way. The list shows a part of the results.

Target: Rap guanine nucleotide exchange factor 4 (Homo sapiens) (UniProt Q8WZA2)
Experiment: Validation qHTS for agonist of cAMP-regulated guanine nucleotide exchange factor 4 (EPAC2);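 further: exchange makes BODIPY-GDP fluorescence drop when released from Rap1B; series mostly up to about 150 µM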
Conditions: EPAC2 Rap1B BODIPY-GDP exchange, fluorescence; activation: hits give high values
How it was run: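 Fluorescent exchange assay: 100 nM EPAC2 with 250 nM RAP1B-BODIPY-GDP and 50 uM GDP; compound added, 5 min at room temperature, then read (ex 480/em 540 nm) every 5 min for 30 min. Normalized to 6.5 mM cAMP agonist control.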
On the % scale 0 is the no-effect control and ±100 the full control effect.

UniProt Q8WZA2, sequence (Q8WZA2 whole entry, looked up): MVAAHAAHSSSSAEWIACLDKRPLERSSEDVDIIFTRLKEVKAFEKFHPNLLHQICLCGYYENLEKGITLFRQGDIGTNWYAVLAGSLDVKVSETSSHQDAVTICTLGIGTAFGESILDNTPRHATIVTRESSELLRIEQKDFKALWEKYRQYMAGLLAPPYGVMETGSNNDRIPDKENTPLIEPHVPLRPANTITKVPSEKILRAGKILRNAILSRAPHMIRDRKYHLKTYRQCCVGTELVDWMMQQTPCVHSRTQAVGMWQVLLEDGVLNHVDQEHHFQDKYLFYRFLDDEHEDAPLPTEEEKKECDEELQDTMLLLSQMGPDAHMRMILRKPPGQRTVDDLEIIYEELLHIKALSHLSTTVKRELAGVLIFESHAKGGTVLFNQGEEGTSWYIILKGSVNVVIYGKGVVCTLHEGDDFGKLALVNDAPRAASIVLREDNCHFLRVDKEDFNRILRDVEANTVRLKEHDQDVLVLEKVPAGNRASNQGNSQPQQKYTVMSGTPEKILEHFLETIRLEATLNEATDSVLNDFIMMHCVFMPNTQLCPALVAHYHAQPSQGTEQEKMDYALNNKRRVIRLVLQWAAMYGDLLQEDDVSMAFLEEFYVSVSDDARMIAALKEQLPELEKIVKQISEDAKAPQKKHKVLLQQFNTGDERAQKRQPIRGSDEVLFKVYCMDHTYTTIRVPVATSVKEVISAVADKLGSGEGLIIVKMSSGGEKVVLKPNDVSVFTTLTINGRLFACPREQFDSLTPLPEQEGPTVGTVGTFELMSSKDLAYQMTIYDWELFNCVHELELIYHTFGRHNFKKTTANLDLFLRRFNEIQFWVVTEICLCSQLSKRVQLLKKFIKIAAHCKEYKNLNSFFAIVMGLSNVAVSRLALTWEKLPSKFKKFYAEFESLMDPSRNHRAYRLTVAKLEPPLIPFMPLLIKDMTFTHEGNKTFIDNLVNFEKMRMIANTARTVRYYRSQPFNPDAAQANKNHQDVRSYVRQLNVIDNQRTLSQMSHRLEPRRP

activation, inactive:
C=C[C@](C)(O)CCC1C(=C)CC(OC(C)=O)C2C(C)(C)CCCC12C (stereo partly specified) -17%
Cc1nc2cnc(Oc3ccccc3)nc2n(C2CC2)c1=O 9.34%
Cc1cccc(CNC(=O)c2cnn(-c3nccc(-c4cc5ccccc5o4)n3)c2C2CC2)n1 -8.18%
O=S1(=O)[C@H]2C[C@@H]3C=C[C@@]2(CN1Cc1ccc(F)cc1)O3 -13.5%
CN(C)CCCC1(c2ccc(F)cc2)OCc2cc(C#N)ccc21 (stereo unspecified) -12.2%
Nn1nnc2ccccc21 -18.1%
COc1cccc(Nc2ncc3nc(-c4cccs4)c(=O)n(C[C@H]4CCCO4)c3n2)c1 7.92%
CN1CCN(c2ncc3nc(-c4ccc(Cl)cc4)c(=O)n(C4CC4)c3n2)CC1 -0.224%
CC(C)[N+](C)(C)CC(O)COc1cccc2ccccc12 (stereo unspecified) -12.1%
CCCC(CCC)C(=O)O 4.12% and -5.36% and -5.48%
CCCCCCCC/C=C\CCCCCCCCN -15%
CC(C)=CCc1c2c(c(O)c3c(=O)c(O)c(-c4ccccc4)oc13)C=CC(C)(C)O2 -22.9%
O=C(O)c1ccc(NC2OC[C@@H](O)[C@H](O)[C@H]2O)cc1 (stereo partly specified) -17.9%
COc1cccc(-c2cc(N(C)Cc3ccco3)ncn2)c1 -1.38%
CCCNC(=O)N1N=C(c2ccc(N)cc2)c2cc3c(cc2[C@H]1C)OCO3 -14.7%
Cc1ncc2c(c1CNS(=O)(=O)c1cccs1)CCN(C(=O)/C=C/c1cc(F)cc(F)c1)C2 4.69%
CO -11.5%
CNC(=O)C[C@@H](N)C(=O)N[C@@H](C(=O)N[C@@H]1C(=O)N2[C@@H]1SC(C)(C)[C@@H]2C(=O)O)c1ccc(O)cc1 2.53%
CC(C)(C)C1CCC(=O)N(CCC#N)CC1 (stereo unspecified) -4.04%
CN1CCN(c2ncc3ncc(=O)n(C[C@H]4CCCO4)c3n2)CC1 -6.51%
O=C(O)CNC(=O)C(CS)Cc1ccccc1 (stereo unspecified) -7.2% and -15.7%
N#Cc1ccc(CN2CCC3(CC2)CCN(C(=O)c2cc(C(F)(F)F)cc(C(F)(F)F)c2)CC3)cc1 -29.5%
C#C[C@]1(O)CC[C@H]2[C@H]3CCC4=Cc5oncc5C[C@]4(C)[C@@H]3CC[C@]21C -18.3%
COc1ccc(CNC(=O)[C@@H]2CC=C[C@@H]3CCN(Cc4ccccc4)C(=O)[C@@H]32)cc1 -0.865%
NCCC(=O)O -18.9% and -6.24%
O=C1/C(=C/c2ccsc2)CC/C1=C\c1cccs1 -3.6%
Cc1ccccc1-c1nc(NCCN2CCOCC2)c2ccccc2n1 -10.2%
CCNc1ncc2ncc(=O)n(C[C@H]3CCCO3)c2n1 -17.5%
COc1cc(CNCc2cc3cc(C)ccc3nc2-c2ccc(F)cc2)cc(OC)c1OC -14.9%
O=C(NCC1Cc2cc(-c3cncnc3)cc(Cl)c2O1)c1cccc(Cn2cccn2)c1 (stereo unspecified) 6.87%
CC(=O)N1CCC2(CC1)CCN(c1ccccn1)CC2 -3.72%
Cc1ccc(CN2CCOCCS2(=O)=O)cc1 -14.2%
COc1ccccc1CNCCCCCCNCCCCCCCCNCCCCCCNCc1ccccc1OC -0.961% and 0.869%
CCCCCCC[n+]1ccc(C)c2ccccc21 -23.7%
CN[C@@H]1CCc2[nH]c3ccc(C(N)=O)cc3c2C1 -5.67%
CC1/C=C/C=C/C=C/C=C/C=C/C=C/C=C/C(OC2OC(C)C(O)C(N)C2O)CC2O[C@@](O)(CC(O)CC(O)C(O)CCC(O)CC(O)CC(=O)OC(C)[C@H](C)C1O)CC(O)C2C(=O)O (stereo partly specified) -10.9%
CC(=O)Nc1ccc(SC[C@H](Cc2ccccc2)N2CC[C@@H](C)CCC2=O)cc1 -19.1%
O=C(Nc1ccccc1)N1CC[C@@]2(CCCN(C(=O)c3ccco3)C2)C1 2.11%
CC(C)CN1CCC2(CC1)CCN(C(=O)c1cc(C(F)(F)F)cc(C(F)(F)F)c1)CC2 -16.3%
COc1ccc(Oc2ncc3ncc(=O)n(C[C@H]4CCCO4)c3n2)cc1 -9.53%
COc1ccc2c(c1)CCc1cnc(-n3ncc(C(=O)NCCCN4CCOCC4)c3C)nc1-2 -14.6%
COc1cccc(N2[C@@H](CC(=O)O)c3ccc(/C=C/C(=O)O)cc3S2(=O)=O)c1 -4.78%
CCC1(C2CCN(Cc3ccc(C)s3)CC2)NC(=O)N(CC2COc3ccccc3O2)C1=O (stereo unspecified) -26.4%
Nc1nc2ncc(=O)[nH]c2c(=O)[nH]1 -3.53%
Cc1ccccc1C1(CC(=O)N2CCN(C)CC2)CC(=O)N(Cc2ccncc2)C1=O (stereo unspecified) -24.4%
Oc1cccc(O)c1O -18.8%
COC1=CC(=O)C[C@@H](C)[C@]12Oc1c(Cl)c(OC)cc(OC)c1C2=O -9.49% and 4.92%
COc1ccc(/C=C/c2cc(OC)c(OC)cc2CC[N+](C)(C)C)cc1 -19.4%
Cn1cc(-c2nc3cnc(N4CCOCC4)nc3n(CCC#N)c2=O)c2ccccc21 -13.1%
N#Cc1ccccc1OC[C@H](O)CNCCNC(=O)Nc1ccccc1 -18.4%
COc1cccc(-n2c(SC)nnc2C2CCN(CCC(C)c3ccc(C)o3)CC2)c1 (stereo unspecified) -10.5%
C=CCN1CC[C@@H](O)C(=C)S1(=O)=O -18.7%
COc1cc(=O)n(C)c2c(OCC(O)C(C)(C)O)cccc12 (stereo unspecified) -12.5%
COc1ccc(CNc2ncncc2-c2c(C)noc2C)c(OC)c1 1.12%
Cc1ccc2nc(SCC(=O)NCC3Cc4cccc(-c5nc(C)cnc5C)c4O3)[nH]c2c1 (stereo unspecified) 2.47%
COc1c2c(cc3occ(-c4ccc5c(c4)OCO5)c(=O)c13)OC(C)(C)C=C2 -2.34%
CC(C)(C)c1cc(/C=C(\C#N)C(N)=S)cc(C(C)(C)C)c1O 15.4% and 14.5% and -44.4%
COc1ccc(C(=O)NCCc2nnc3n2CCN(CC2CC=CCC2)CC3)cc1 (stereo unspecified) -5.39%
COc1ccc(SC[C@H](C)CN2CC[C@H](C(C)(C)C)CCC2=O)cc1 -53.1%
Cc1cnc(CNc2cc(-c3ccccc3C(F)(F)F)ncn2)cn1 -12.1%
Cc1ncc2c(c1CNC(=O)c1cncs1)CCN(C(=O)c1ccsc1)C2 -6.32%
C=C1C2=CC(=O)OC(c3ccoc3)[C@]2(C)CCC1[C@]1(C)C=CC(=O)C(C)(C)C1CC(=O)OC (stereo partly specified) -38.4%
COc1c(C2=CC(=O)N(C)C2=O)c2c(n1C)C(=O)c1ccccc1C2=O -11.5%
COc1ccc(-c2coc3cc(O)cc(O)c3c2=O)cc1 -21.6% and -19.2%
Cn1cc(-c2nc3cnc(OCc4ccccc4)nc3n(CCC#N)c2=O)c2ccccc21 1.5%
CCCCC1=NC2(CCCC2)C(=O)N1Cc1ccc(-c2ccccc2-c2nn[nH]n2)cc1 -12.8%
Cc1cnc(CNc2nc(-c3cccc(NS(C)(=O)=O)c3)nc3ccccc23)cn1 -10.5%
OCC1OC(n2cnc3c(=S)nc[nH]c32)C(O)C1O (stereo unspecified) -5.59%
Nc1nc2c(nc(Sc3ccc(Cl)cc3)n2C2OC(CO)C(O)C2O)c(=O)[nH]1 (stereo unspecified) 0.176%
C[C@H](NC(=O)/C(C#N)=C/c1ccc(O)c(O)c1)c1ccccc1 -24.8% and -59.2%
O=S(=O)(NCCNC/C=C/c1ccc(Br)cc1)c1cccc2cnccc12 2.57% and 0.593%
C[S+](CC[C@H](N)C(=O)O)C[C@H]1O[C@@H](n2cnc3c(N)ncnc32)[C@H](O)[C@@H]1O (stereo partly specified) 2.15% and -16.9%
COCCNc1ncncc1-c1ccccc1OC 0.0196%
OCC(O)CN1CCN(c2ccccc2)CC1 (stereo unspecified) -6.04%
COc1cccc2c3c(c(C)nc12)CC(CO)O3 (stereo unspecified) -2.38%
N#Cc1cccc(-c2cncnc2-n2ccnc2)c1 0.245%
Cc1cc(C(=O)Nc2ccccc2-c2nc(CNC(=O)c3sc(C)nc3C)c(C)o2)c(C)o1 -6.12%
COCCn1c(=O)c(CCc2ccccc2)nc2cnc(OC)nc21 -5.77%
O=c1c(-c2cccs2)nc2cnc(N3CCOCC3)nc2n1Cc1cccs1 -2.33%
CN(Cc1ccco1)c1cc(-c2cccnc2)ncn1 -2.39%
CN1Cc2sccc2C(c2ccc(O)c(O)c2)C1 (stereo unspecified) -11.1%
COc1cc2c(cc1OC)C(=O)OC2 -5.42%
CN1CCN(c2ncc3nc(-c4cccc(C#N)c4)c(=O)n(CCc4ccccc4)c3n2)CC1 1.3%
COc1ccccc1N1CCN(CCN2C(=O)CC3(CCCC3)CC2=O)CC1 -4.65% and -12% and -19.2%
CC[C@H](C)N(C)C(=O)c1cc2ccccc2c(-c2ccccc2Cl)n1 -26.6%
CC(O)(COc1ccccc1)c1ccc2c(c1)CN(Cc1cccn1-c1ccccn1)CCO2 (stereo unspecified) -12.6%
